Assay results from the supplement of paper PMC12645437, “Orthogonal IMiD-Degron Pairs Induce Selective Protein Degradation in Cells” (ACS Chemical Biology, 2025).
The other results are listed elsewhere or left out.

target: no compound (DMSO); experiment: log2 fold change of degron read counts, EGFP-low vs EGFP+ sorted cells; higher = lower degron-EGFP level without compound (poor expression or instability); conditions: compound: DMSO control; 18 h
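Further: jurkat cells carrying a lentiviral library of mutant zinc finger degrons fused to EGFP plus mCherry, mCherry+ cells FACS sorted, degron abundance counted by next-generation sequencing.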

Which “log2 fold change of degron read counts” value does the source give for FMCNICGAIFTQKGNLLRHIKL here?
The value was 1.41.

For FFCPICGHWFTQKGNLLRHIKL, which “log2 fold change of degron read counts” value is on record?
The value was 1.55.

Which “log2 fold change of degron read counts” value does the source give for FSCDVCGARFTQKGNLLRHIKL here?
Its value is -0.777.

For LKCNQCGFYCTQKGNLLRHIKL, which “log2 fold change of degron read counts” value is on record?
The value was 1.25.

For FRCEICGHVFTQKGNLLRHIKL, which “log2 fold change of degron read counts” value is on record?
Its value is -0.875.

How did the “log2 fold change of degron read counts” value turn out when FVCNVCGASFTQKGNLLRHIKL was run?
Its value is -0.772.

For FKCPQCGADFTQKGNLLRHIKL, which “log2 fold change of degron read counts” value is on record?
The value was -2.12.

With FECNQCGHYFTQKGNLLRHIKL as the sequence, how does the “log2 fold change of degron read counts” value read?
The value was 0.159.

Which “log2 fold change of degron read counts” value does the source give for FSCPQCGAWFTQKGNLLRHIKL here?
The value was -0.546.

With FYCNQCGRYFTQKGNLLRHIKL as the sequence, how does the “log2 fold change of degron read counts” value read?
Its value is 1.09.

Which “log2 fold change of degron read counts” value does the source give for FFCEQCGAIFTQKGNLLRHIKL here?
Its value is -1.25.

For LACEICGFECTQKGNLLRHIKL, which “log2 fold change of degron read counts” value is on record?
Its value is -1.1.

For LSCPICGFYCTQKGNLLRHIKL, which “log2 fold change of degron read counts” value is on record?
The value was 1.52.

For FRCEVCGANFTQKGNLLRHIKL, which “log2 fold change of degron read counts” value is on record?
Its value is -1.68.

FYCNQCGAYFTQKGNLLRHIKL was tested. Which “log2 fold change of degron read counts” value did it give?
The value was 0.75.

For FRCEQCGAYFTQKGNLLRHIKL, which “log2 fold change of degron read counts” value is on record?
Its value is -1.28.

For FLCPICGHEFTQKGNLLRHIKL, which “log2 fold change of degron read counts” value is on record?
Its value is -1.37.

With FDCPQCGASFTQKGNLLRHIKL as the sequence, how does the “log2 fold change of degron read counts” value read?
The value was -2.2.

With FICDQCGAFFTQKGNLLRHIKL as the sequence, how does the “log2 fold change of degron read counts” value read?
Its value is -0.871.

Which “log2 fold change of degron read counts” value does the source give for FHCNQCGRHFTQKGNLLRHIKL here?
Its value is -0.307.

LFCPICGFLCTQKGNLLRHIKL was tested. Which “log2 fold change of degron read counts” value did it give?
Its value is 2.14.

For FMCNICGATFTQKGNLLRHIKL, which “log2 fold change of degron read counts” value is on record?
Its value is -0.379.

How did the “log2 fold change of degron read counts” value turn out when FGCPICGRWFTQKGNLLRHIKL was run?
The value was 0.335.

With LFCEICGFQCTQKGNLLRHIKL as the sequence, how does the “log2 fold change of degron read counts” value read?
Its value is 0.0789.

With LWCEICGFSCTQKGNLLRHIKL as the sequence, how does the “log2 fold change of degron read counts” value read?
The value was 1.15.

Which “log2 fold change of degron read counts” value does the source give for FLCPICGAMFTQKGNLLRHIKL here?
The value was 0.238.

Which “log2 fold change of degron read counts” value does the source give for FTCEICGRDFTQKGNLLRHIKL here?
The value was -2.35.

With FFCEICGAMFTQKGNLLRHIKL as the sequence, how does the “log2 fold change of degron read counts” value read?
Its value is 0.00164.

For LICEICGFSCTQKGNLLRHIKL, which “log2 fold change of degron read counts” value is on record?
The value was -0.104.

How did the “log2 fold change of degron read counts” value turn out when FVCNQCGHSFTQKGNLLRHIKL was run?
Its value is -1.4.

Which “log2 fold change of degron read counts” value does the source give for FLCDICGATFTQKGNLLRHIKL here?
Its value is -1.26.

For FKCEICGAPFTQKGNLLRHIKL, which “log2 fold change of degron read counts” value is on record?
Its value is -0.875.
